Article PMC6720459
No constants are given. Whether binding was seen depends on the method and setting. In cells and extracts the contact can be indirect. Some results given as binding are weak or reduced against the parent protein; the word gives no strength. For part of these data: Tags and fused reporters may be left off the sequences shown. Each block holds one molecule with its values, some of them ahead of it.

Protein sequences, listed by entry. Tags and fused reporters are not part of them. Lines headed by an entry give the natural chain unless they say otherwise; changes in a name come on top.
UniProt Q9HBA0: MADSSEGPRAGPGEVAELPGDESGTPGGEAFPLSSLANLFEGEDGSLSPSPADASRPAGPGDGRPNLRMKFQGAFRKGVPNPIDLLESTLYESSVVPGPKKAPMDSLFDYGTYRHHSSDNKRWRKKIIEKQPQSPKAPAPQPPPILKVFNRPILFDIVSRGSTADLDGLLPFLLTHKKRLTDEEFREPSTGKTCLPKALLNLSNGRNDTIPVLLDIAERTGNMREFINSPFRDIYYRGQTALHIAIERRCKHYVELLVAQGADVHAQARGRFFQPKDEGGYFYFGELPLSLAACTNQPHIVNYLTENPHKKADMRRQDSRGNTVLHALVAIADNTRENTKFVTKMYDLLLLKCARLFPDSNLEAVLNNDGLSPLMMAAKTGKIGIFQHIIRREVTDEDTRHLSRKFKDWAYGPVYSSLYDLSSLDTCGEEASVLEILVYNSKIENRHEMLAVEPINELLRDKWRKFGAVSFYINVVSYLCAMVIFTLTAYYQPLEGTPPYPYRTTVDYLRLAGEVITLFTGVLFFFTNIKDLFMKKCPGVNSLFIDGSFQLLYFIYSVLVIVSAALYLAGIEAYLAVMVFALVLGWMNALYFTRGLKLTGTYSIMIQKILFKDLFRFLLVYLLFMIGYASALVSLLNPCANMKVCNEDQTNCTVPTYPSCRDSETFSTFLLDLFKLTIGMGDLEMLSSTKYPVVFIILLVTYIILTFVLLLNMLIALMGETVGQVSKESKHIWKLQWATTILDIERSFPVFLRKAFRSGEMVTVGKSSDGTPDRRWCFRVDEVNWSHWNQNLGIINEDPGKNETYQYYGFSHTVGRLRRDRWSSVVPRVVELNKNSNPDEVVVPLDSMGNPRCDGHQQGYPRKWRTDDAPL
UniProt Q9CQ22: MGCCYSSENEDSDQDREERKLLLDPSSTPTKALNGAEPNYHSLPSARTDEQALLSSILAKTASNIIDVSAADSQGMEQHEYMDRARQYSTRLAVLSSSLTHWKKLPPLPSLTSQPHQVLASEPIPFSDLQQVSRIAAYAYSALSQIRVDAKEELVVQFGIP
UniProt Q704Y3: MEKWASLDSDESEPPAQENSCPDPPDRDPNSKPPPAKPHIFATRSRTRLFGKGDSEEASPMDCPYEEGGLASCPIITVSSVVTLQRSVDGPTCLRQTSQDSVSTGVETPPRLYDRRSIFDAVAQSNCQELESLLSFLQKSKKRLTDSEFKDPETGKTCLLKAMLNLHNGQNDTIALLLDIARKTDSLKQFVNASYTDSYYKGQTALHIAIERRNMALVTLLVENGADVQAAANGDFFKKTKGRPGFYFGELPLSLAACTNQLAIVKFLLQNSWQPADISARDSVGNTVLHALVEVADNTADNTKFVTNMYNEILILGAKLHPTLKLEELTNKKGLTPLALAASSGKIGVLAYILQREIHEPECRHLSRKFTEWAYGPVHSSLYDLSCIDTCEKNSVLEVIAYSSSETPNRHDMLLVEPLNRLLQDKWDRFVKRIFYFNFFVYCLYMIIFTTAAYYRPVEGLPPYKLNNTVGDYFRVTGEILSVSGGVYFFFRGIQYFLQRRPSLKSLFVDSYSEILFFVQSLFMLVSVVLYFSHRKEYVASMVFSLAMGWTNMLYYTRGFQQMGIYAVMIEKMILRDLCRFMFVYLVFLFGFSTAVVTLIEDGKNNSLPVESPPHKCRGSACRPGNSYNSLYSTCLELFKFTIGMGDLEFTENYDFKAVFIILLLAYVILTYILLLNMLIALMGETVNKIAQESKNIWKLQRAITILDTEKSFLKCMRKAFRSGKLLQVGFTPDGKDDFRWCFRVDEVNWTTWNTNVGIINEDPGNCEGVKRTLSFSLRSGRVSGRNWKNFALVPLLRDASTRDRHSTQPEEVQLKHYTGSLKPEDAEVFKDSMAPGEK
UniProt P38606: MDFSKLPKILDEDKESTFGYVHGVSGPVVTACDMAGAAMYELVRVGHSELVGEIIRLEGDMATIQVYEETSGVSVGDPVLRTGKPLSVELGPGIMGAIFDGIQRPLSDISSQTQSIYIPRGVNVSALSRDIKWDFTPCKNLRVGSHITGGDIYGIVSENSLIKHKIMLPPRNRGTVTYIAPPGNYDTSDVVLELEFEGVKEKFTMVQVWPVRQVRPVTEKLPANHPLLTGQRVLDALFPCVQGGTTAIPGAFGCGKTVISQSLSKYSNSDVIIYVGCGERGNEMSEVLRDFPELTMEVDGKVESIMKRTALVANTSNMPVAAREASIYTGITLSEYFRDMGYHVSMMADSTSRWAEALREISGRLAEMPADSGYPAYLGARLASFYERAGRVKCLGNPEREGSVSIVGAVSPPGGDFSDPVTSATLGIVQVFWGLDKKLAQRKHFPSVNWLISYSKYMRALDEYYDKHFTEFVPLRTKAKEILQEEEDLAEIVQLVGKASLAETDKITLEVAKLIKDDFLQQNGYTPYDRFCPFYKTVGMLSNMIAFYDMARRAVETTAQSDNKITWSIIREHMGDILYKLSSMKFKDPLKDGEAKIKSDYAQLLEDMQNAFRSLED
UniProt Q9EPK8: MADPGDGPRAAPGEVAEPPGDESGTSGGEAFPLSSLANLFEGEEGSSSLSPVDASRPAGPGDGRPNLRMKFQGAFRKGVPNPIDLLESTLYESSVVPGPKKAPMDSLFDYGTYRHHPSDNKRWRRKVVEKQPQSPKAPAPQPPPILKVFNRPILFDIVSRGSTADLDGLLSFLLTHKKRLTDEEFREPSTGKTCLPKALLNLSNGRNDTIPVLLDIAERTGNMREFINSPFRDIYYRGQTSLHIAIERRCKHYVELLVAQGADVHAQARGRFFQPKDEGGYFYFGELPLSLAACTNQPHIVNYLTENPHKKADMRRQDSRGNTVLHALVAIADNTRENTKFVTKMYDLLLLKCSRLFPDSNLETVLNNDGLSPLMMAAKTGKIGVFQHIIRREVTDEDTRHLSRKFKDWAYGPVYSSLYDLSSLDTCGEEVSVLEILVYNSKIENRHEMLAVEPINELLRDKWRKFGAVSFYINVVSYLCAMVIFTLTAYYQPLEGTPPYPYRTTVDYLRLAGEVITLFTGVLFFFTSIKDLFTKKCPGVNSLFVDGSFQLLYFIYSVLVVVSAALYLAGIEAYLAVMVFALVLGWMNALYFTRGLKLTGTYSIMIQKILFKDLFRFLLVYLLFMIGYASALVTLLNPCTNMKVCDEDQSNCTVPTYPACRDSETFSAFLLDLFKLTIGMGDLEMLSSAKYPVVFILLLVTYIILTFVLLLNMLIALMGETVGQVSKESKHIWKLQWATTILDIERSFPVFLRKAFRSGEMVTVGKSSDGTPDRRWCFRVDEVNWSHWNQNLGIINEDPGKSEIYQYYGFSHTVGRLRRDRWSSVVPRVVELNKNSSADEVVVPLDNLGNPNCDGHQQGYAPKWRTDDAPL

Tests used:
[1] = target: T1, ALDOA, ectopically expressed (FLAG- or HA-tagged) (human) (UniProt P04075); test: co-IP; FLAG- and HA-tagged TRPV and aldolase co-transfected in HEK293T; lysis in ODG buffer (50 mM Tris-HCl pH 8.0, 50 mM NaCl, 2% ODG); anti-FLAG M2 gel 4 h at 4 °C; elution with FLAG peptide; immunoblot
T1 sequence: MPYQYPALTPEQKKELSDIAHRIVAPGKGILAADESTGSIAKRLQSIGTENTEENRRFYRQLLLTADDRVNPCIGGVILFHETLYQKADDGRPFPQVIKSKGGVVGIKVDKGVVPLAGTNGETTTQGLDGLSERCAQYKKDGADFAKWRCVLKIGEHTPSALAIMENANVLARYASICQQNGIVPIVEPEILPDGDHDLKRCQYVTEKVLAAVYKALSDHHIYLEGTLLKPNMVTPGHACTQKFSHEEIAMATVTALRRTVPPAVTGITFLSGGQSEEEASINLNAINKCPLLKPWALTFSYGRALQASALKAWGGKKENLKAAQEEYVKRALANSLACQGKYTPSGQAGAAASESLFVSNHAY

[2] = target: T2, ALDOB, ectopically expressed (FLAG- or HA-tagged) (UniProt P05062); test: as above
T2 sequence: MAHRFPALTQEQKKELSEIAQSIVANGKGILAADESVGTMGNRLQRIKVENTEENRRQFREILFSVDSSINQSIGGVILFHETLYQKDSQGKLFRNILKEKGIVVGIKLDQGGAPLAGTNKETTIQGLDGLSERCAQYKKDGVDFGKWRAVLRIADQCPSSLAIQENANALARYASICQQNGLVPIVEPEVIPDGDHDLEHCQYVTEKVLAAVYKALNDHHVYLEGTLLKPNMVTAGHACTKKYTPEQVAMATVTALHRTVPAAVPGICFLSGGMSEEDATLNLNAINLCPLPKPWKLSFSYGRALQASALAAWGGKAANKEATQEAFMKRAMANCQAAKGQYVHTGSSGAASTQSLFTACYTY

[3] = target: T3, ALDOC, ectopically expressed (FLAG- or HA-tagged) (UniProt P09972); test: as above
T3 sequence: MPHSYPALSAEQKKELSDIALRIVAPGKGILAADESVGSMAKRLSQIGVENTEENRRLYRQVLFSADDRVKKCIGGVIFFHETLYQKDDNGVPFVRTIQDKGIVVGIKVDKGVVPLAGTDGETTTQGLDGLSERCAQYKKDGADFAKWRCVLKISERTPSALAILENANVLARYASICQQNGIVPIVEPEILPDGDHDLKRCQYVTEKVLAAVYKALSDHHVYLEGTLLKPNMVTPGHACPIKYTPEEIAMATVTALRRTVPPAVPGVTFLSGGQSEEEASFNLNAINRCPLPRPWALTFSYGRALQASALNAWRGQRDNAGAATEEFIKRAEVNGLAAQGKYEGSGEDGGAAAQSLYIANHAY

FLAG-ALDOA (human) = target: T4, FLAG-ALDOA (human) (UniProt P04075); test: co-IP; two-step coIP of FLAG-ALDOA, Myc-TRPV4 and HA-v-ATPase from glucose-starved HEK293T cells, immunoblot
T4 sequence: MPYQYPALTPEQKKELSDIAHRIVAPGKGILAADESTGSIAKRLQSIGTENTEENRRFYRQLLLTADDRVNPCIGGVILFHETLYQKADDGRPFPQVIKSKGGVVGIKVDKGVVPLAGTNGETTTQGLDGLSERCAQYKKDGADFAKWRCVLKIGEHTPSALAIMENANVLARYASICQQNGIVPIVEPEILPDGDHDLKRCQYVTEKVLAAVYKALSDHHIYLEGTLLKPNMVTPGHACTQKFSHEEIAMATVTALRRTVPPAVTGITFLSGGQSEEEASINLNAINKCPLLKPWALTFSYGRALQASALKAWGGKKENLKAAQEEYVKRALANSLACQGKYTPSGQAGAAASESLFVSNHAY

Myc-TRPV4 (human) = Myc-TRPV4 (human) (UniProt Q9HBA0); test: as above
[4] = target: T5, endogenous aldolase of MEFs (represented by ALDOA) (mouse (endogenous in MEFs)) (UniProt P05064); test: co-IP; endogenous proteins; lysates of 2-h glucose-starved MEFs (wild type or TRPV-QKO) in ODG buffer; aldolase or TRPV4 immunoprecipitated overnight, protein A/G beads; samples without or with 10 μM FBP and/or 0.5 μM CaCl2 (the losses told for FBP and CaCl2 are a6 and a7)
T5 sequence: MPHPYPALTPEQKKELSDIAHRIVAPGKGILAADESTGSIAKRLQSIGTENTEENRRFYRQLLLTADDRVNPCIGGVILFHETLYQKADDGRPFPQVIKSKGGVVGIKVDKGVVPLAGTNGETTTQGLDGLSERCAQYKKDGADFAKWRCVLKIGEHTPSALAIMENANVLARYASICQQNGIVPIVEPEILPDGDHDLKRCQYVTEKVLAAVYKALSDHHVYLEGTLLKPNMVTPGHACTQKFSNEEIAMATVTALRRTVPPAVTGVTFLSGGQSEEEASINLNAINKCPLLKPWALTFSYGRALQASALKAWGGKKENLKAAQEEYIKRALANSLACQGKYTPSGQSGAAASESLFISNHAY

[5] = target: T5, endogenous aldolase of MEFs (represented by ALDOA) (mouse (endogenous in MEFs)); test: co-IP; as a5, lysates of glucose-starved MEFs mixed with 10 μM FBP
[6] = target: T5, endogenous aldolase of MEFs (represented by ALDOA) (mouse (endogenous in MEFs)); test: co-IP; light organelles from 2-h glucose-starved MEFs, no FBP added; aldolase immunoprecipitated, immunoblot of endogenous TRPV4
[7] = target: T5, endogenous aldolase of MEFs (represented by ALDOA) (mouse (endogenous in MEFs)); test: co-IP; light organelles from 2-h glucose-starved MEFs with FBP added at 10 μM and above; aldolase immunoprecipitated, immunoblot of endogenous TRPV4
[8] = target: endogenous LAMTOR1 of MEFs (mouse (endogenous in MEFs)) (UniProt Q9CQ22); test: co-IP; endogenous LAMTOR1 immunoprecipitated from MEFs in ODG buffer; cells regularly cultured, glucose-starved, treated with 100 μM BAPTA-AM for 30 min, or TRPV-QKO
[9] = target: endogenous LAMTOR1 of MEFs (mouse (endogenous in MEFs)) (UniProt Q9CQ22); test: co-IP; light organelles from 2-h glucose-starved MEFs incubated with 10 μM FBP with or without 500 μM BAPTA at 37 °C, then with cytosol; lysis in ODG buffer; endogenous LAMTOR1 immunoprecipitated

binding [1]: binds
Molecule: TRPV1, ectopically expressed (FLAG- or HA-tagged) (from UniProt Q704Y3 1-839)

binding [1]: no binding
Molecule: TRPV4-K535A (from UniProt Q9HBA0 1-871)

binding [1]: binds
binding [2]: binds
binding [3]: binds
Molecule: TRPV4, ectopically expressed (FLAG- or HA-tagged) (from UniProt Q9HBA0 1-871)

binding (FLAG-ALDOA (human)): binds
binding (Myc-TRPV4 (human)): binds
Molecule: HA-v-ATPase (represented by its V1A, V1B2, v0d1, and V1D subunits) (from UniProt P38606 1-617; P21281 1-511; P61421 1-351; Q9Y5K8 1-247) (complex)

binding [4]: binds
Molecule: endogenous TRPV1 of MEFs (from UniProt Q704Y3 1-839)

binding [5]: no binding (condition: with 10 μM FBP)
binding [6]: binds
binding [4]: binds
Molecule: endogenous TRPV4 of MEFs (from UniProt Q9EPK8 1-871)
binding [7]: no binding (condition: with 10 μM (and above) FBP)

binding (FLAG-ALDOA (human)): binds
Molecule: Myc-TRPV4 (from UniProt Q9HBA0 1-871)

binding [8]: binds
binding [9]: binds
B1: endogenous LKB1 of MEFs (protein, UniProt Q9WTK7 1-436)
chain: MDVADPEPLGLFSEGELMSVGMDTFIHRIDSTEVIYQPRRKRAKLIGKYLMGDLLGEGSYGKVKEVLDSETLCRRAVKILKKKKLRRIPNGEANVKKEIQLLRRLRHRNVIQLVDVLYNEEKQKMYMVMEYCVCGMQEMLDSVPEKRFPVCQAHGYFRQLIDGLEYLHSQGIVHKDIKPGNLLLTTNGTLKISDLGVAEALHPFAVDDTCRTSQGSPAFQPPEIANGLDTFSGFKVDIWSAGVTLYNITTGLYPFEGDNIYKLFENIGRGDFTIPCDCGPPLSDLLRGMLEYEPAKRFSIRQIRQHSWFRKKHPLAEALVPIPPSPDTKDRWRSMTVVPYLEDLHGRAEEEEEEDLFDIEDGIIYTQDFTVPGQVLEEEVGQNGQSHSLPKAVCVNGTEPQLSSKVKPEGRPGTANPARKVCSSNKIRRLSACKQQ
